These results are taken from the supplement of paper PMC8728848.

This is one part of the list.

Holding throughout (test): glycan array binding signal (z-score within array); higher = stronger binding
Settings in all cases: glycan notation: IUPAC condensed, linker removed

Experiment [1] concerns the target GlcNAc(b1-3)Gal(b1-4)GlcNAc(b1-2)[GlcNAc(b1-3)Gal(b1-4)GlcNAc(b1-6)]Man(a1-6)[GlcNAc(b1-3)Gal(b1-4)GlcNAc(b1-2)Man(a1-3)]Man(b1-4)GlcNAc(b1-4)GlcNAc. Put shortly:
(§1)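 Glycan array data were curated from 3228 arrays in the Consortium for Functional Glycomics database and kept only where the protein sequence was available. Glycan names were converted to IUPAC-condensed notation, and columns mapping to the same glycan were averaged. The binding signal is a within-array Z-score, averaged across arrays of the same protein sequence at different concentrations or buffers and across linkers. Negative Z-scores can be read as non-binding.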

Experiment [2] addresses GlcNAc(b1-3)Gal(b1-4)GlcNAc(b1-3)Gal(b1-4)GlcNAc. Put shortly:
as §1

Experiment [3] concerns the target GlcNAc(b1-3)Gal(b1-4)GlcNAc(b1-3)Gal(b1-4)GlcNAc(b1-2)Man(a1-3)[GlcNAc(b1-3)Gal(b1-4)GlcNAc(b1-3)Gal(b1-4)GlcNAc(b1-2)Man(a1-6)]Man(b1-4)GlcNAc(b1-4)GlcNAc. Put shortly: as §1
Experiment [4] concerns the target GlcNAc(b1-3)Gal(b1-4)GlcNAc(b1-3)Gal(b1-4)GlcNAc(b1-2)Man(a1-3)[GlcNAc(b1-3)Gal(b1-4)GlcNAc(b1-3)Gal(b1-4)GlcNAc(b1-2)Man(a1-6)]Man(b1-4)GlcNAc(b1-4)[Fuc(a1-6)]GlcNAc. In short, it runs like this:
as §1

In experiment [5] the target is GlcNAc(b1-3)Gal(b1-4)GlcNAc(b1-3)Gal(b1-4)GlcNAc(b1-2)[GlcNAc(b1-3)Gal(b1-4)GlcNAc(b1-3)Gal(b1-4)GlcNAc(b1-6)]Man(a1-6)[GlcNAc(b1-3)Gal(b1-4)GlcNAc(b1-3)Gal(b1-4)GlcNAc(b1-2)Man(a1-3)]Man(b1-4)GlcNAc(b1-4)[Fuc(a1-6)]GlcNAc. In short, it runs like this:
as §1

In experiment [6] the target is GlcNAc(b1-3)Gal(b1-4)GlcNAc(b1-3)Gal(b1-4)GlcNAc(b1-3)Gal(b1-4)GlcNAc(b1-2)Man(a1-3)[GlcNAc(b1-3)Gal(b1-4)GlcNAc(b1-3)Gal(b1-4)GlcNAc(b1-3)Gal(b1-4)GlcNAc(b1-2)Man(a1-6)]Man(b1-4)GlcNAc(b1-4)GlcNAc. Put shortly:
as §1

Experiment [7] addresses GlcNAc(b1-3)Gal(b1-4)GlcNAc(b1-3)Gal(b1-4)GlcNAc(b1-3)Gal(b1-4)GlcNAc(b1-2)Man(a1-3)[GlcNAc(b1-3)Gal(b1-4)GlcNAc(b1-3)Gal(b1-4)GlcNAc(b1-3)Gal(b1-4)GlcNAc(b1-2)Man(a1-6)]Man(b1-4)GlcNAc(b1-4)[Fuc(a1-6)]GlcNAc. In short, it runs like this: as §1
Experiment [8] addresses GlcNAc(b1-3)Gal(b1-4)GlcNAc(b1-3)Gal(b1-4)GlcNAc(b1-3)Gal(b1-4)GlcNAc(b1-2)[GlcNAc(b1-3)Gal(b1-4)GlcNAc(b1-3)Gal(b1-4)GlcNAc(b1-3)Gal(b1-4)GlcNAc(b1-6)]Man(a1-6)[GlcNAc(b1-3)Gal(b1-4)GlcNAc(b1-3)Gal(b1-4)GlcNAc(b1-3)Gal(b1-4)GlcNAc(b1-2)Man(a1-3)]Man(b1-4)GlcNAc(b1-4)[Fuc(a1-6)]GlcNAc. In short, it runs like this:
as §1

Experiment [9] deals with GlcNAc(b1-3)Gal(b1-4)GlcNAc(b1-3)Gal(b1-4)GlcNAc(b1-3)Gal(b1-4)GlcNAc(b1-3)Gal(b1-4)GlcNAc(b1-2)Man(a1-3)[GlcNAc(b1-3)Gal(b1-4)GlcNAc(b1-3)Gal(b1-4)GlcNAc(b1-3)Gal(b1-4)GlcNAc(b1-3)Gal(b1-4)GlcNAc(b1-2)Man(a1-6)]Man(b1-4)GlcNAc(b1-4)GlcNAc. Put shortly:
as §1

Experiment [10] deals with GlcNAc(b1-3)Gal(b1-4)GlcNAc(b1-3)Gal(b1-4)GlcNAc(b1-3)Gal(b1-4)GlcNAc(b1-3)Gal(b1-4)GlcNAc(b1-2)Man(a1-3)[GlcNAc(b1-3)Gal(b1-4)GlcNAc(b1-3)Gal(b1-4)GlcNAc(b1-3)Gal(b1-4)GlcNAc(b1-3)Gal(b1-4)GlcNAc(b1-2)Man(a1-6)]Man(b1-4)GlcNAc(b1-4)[Fuc(a1-6)]GlcNAc. In short, it runs like this: as §1
For experiment [11], the target named is GlcNAc(b1-3)Gal(b1-4)GlcNAc(b1-3)Gal(b1-4)GlcNAc(b1-3)Gal(b1-4)GlcNAc(b1-3)Gal(b1-4)GlcNAc(b1-2)[GlcNAc(b1-3)Gal(b1-4)GlcNAc(b1-3)Gal(b1-4)GlcNAc(b1-3)Gal(b1-4)GlcNAc(b1-3)Gal(b1-4)GlcNAc(b1-6)]Man(a1-6)[GlcNAc(b1-3)Gal(b1-4)GlcNAc(b1-3)Gal(b1-4)GlcNAc(b1-3)Gal(b1-4)GlcNAc(b1-3)Gal(b1-4)GlcNAc(b1-2)Man(a1-3)]Man(b1-4)GlcNAc(b1-4)[Fuc(a1-6)]GlcNAc. In short, it runs like this: as §1

The target of experiment [12] is GlcNAc(b1-3)Gal(b1-4)GlcNAc(b1-3)Gal(b1-4)GlcNAc(b1-3)GalNAc. In short, it runs like this: as §1
Experiment [13] addresses GlcNAc(b1-3)Gal(b1-4)GlcNAc(b1-3)GalNAc. Put shortly: as §1
Experiment [14] addresses GlcNAc(b1-3)Gal(b1-4)GlcNAc(b1-3)[GlcNAc(b1-3)Gal(b1-4)GlcNAc(b1-3)]GalNAc. In short, it runs like this:
as §1

Experiment [15] deals with GlcNAc(b1-3)Gal(b1-4)GlcNAc(b1-6)[Gal(b1-3)]GalNAc. In short, it runs like this: as §1
The target in experiment [16] is GlcNAc(b1-3)Gal(b1-4)GlcNAc(b1-6)[GlcNAc(b1-3)Gal(b1-3)]GalNAc. In short, it runs like this:
as §1

Experiment [17] has as its target GlcNAc(b1-3)Gal(b1-4)GlcNAc(b1-6)[GlcNAc(b1-3)]Gal(b1-4)GlcNAc. Put shortly:
as §1

A further experiment has as its target GlcNAc(b1-3)GalNAc. In short, it runs like this: as §1
A further experiment addresses GlcNAc(b1-3)Man. In short, it runs like this: as §1
Experiment [18] has as its target GlcNAc(b1-3)[GlcNAc(b1-4)][GlcNAc(b1-6)]GlcNAc. Put shortly:
as §1

Experiment [19] concerns the target GlcNAc(b1-3)[GlcNAc(b1-6)]Gal(b1-4)GlcNAc. Put shortly:
as §1

The target in experiment [20] is GlcNAc(b1-3)[GlcNAc(b1-6)]GalNAc. Put shortly: as §1
Experiment [21] addresses GlcNAc(b1-3)[GlcNAc(b1-6)]GlcNAc(b1-4)GlcNAc. In short, it runs like this:
as §1

B1: UDA (Urtica dioica), P11218 (protein)
chain: MMMRFLSAVVIMSSAMAVGLVSAQRCGSQGGGGTCPALWCCSIWGWCGDSEPYCGRTCENKCWSGERSDHRCGAAVGNPPCGQDRCCSVHGWCGGGNDYCSGSKCQYRCSSSVRGPRVALSGNSTANSIGNVVVTEPLFDQMFSHRKDCPSQGFYSYHSFLVAAESFPAFGTIGDVATRKREVAAFLAHISQATSGERSDVENPHAWGLCHINTTTVTENDFCTSSDWPCAAGKKYSPRGPIQLTHNFNYGLAGQAIGEDLIQNPDLVEKDPIISFKTALWFWMSQHDNKPSCHDIVLNANSAANRIPNKGVIGNIISRAFGHDDFAVRSSSIGFYKRYCDMLGVSYGHDLKYWFDNTPSSEFQRIQMRVAA
For B1, the “glycan array binding signal (z-score)” value is -0.159 in experiment [1]; -0.098 in experiment [2]; -0.054 in experiment [3]; 0.026 in experiment [4]; -0.176 in experiment [5]; -0.123 in experiment [6]. Also, the “glycan array binding signal (z-score)” value in experiment [7] is -0.03; in experiment [8] it was -0.154; in experiment [9], 0.013; in experiment [10], 0.09; in [11], -0.085; in experiment [12] it was -0.187. Further, the “glycan array binding signal (z-score)” value in [13] was -0.182; in experiment [14], -0.174; in [15] it was -0.175; in experiment [16], -0.183; in [17] it was -0.098; in the experiment with GlcNAc(b1-3)GalNAc it was -0.175. The “glycan array binding signal (z-score)” value in the experiment with GlcNAc(b1-3)Man was -0.17; in experiment [18] it was -0.181; in experiment [19], -0.178; in [20], -0.183; in [21], -0.248.
